Laboratory results: the supplement of paper PMC8728848
The list shows a part of the results.

Tests used:
Assay in all cases: glycan array binding signal (z-score within array); higher = stronger binding
Conditions in all cases: glycan notation: IUPAC condensed, linker removed
Gal6S(b1-3)GlcNAc6S = target: Gal6S(b1-3)GlcNAc6S
Procedure, shortened: (§1)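 Columns mapping to the same glycan were averaged after glycan names were converted to IUPAC-condensed notation. The data come from 3228 arrays in the Consortium for Functional Glycomics database, limited to those with an available protein sequence. Binding is reported as a within-array Z-score averaged across arrays of one protein sequence and across linkers.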

Gal6S(b1-4)Glc = target: Gal6S(b1-4)Glc
Procedure, shortened: as §1

Gal6S(b1-4)Glc6S = target: Gal6S(b1-4)Glc6S
Procedure, shortened: as §1

Gal6S(b1-4)GlcNAc = target: Gal6S(b1-4)GlcNAc
Procedure, shortened: as §1

Gal6S(b1-4)GlcNAc6S = target: Gal6S(b1-4)GlcNAc6S
Procedure, shortened: as §1

GalNAc(a1-3)Gal = target: GalNAc(a1-3)Gal
Procedure, shortened: as §1

GalNAc(a1-3)GalNAc = target: GalNAc(a1-3)GalNAc
Procedure, shortened: as §1

[1] = target: GalNAc(a1-3)GalNAc(a1-3)Gal(a1-4)Gal(b1-4)GlcNAc
Procedure, shortened: as §1

[2] = target: GalNAc(a1-3)GalNAc(b1-3)Gal(a1-4)Gal(b1-4)Glc
Procedure, shortened: as §1

[3] = target: GalNAc(a1-3)GalNAc(b1-3)Gal(a1-4)Gal(b1-4)GlcNAc
Procedure, shortened: as §1

GalNAc(b1-3)Gal = target: GalNAc(b1-3)Gal
Procedure, shortened: as §1

[4] = target: GalNAc(b1-3)Gal(a1-4)Gal(b1-4)GlcNAc
Procedure, shortened: as §1

[5] = target: GalNAc(b1-3)Gal(a1-4)Gal(b1-4)GlcNAc(b1-3)Gal(b1-4)Glc
Procedure, shortened: as §1

[6] = target: GalNAc(b1-3)Gal(a1-6)Gal(b1-4)Glc
Procedure, shortened: as §1

GalNAc(b1-3)GalNAc = target: GalNAc(b1-3)GalNAc
Procedure, shortened: as §1

GalNAc(b1-3)GlcNAc = target: GalNAc(b1-3)GlcNAc
Procedure, shortened: as §1

GalNAc(b1-4)Gal(b1-4)Glc = target: GalNAc(b1-4)Gal(b1-4)Glc
Procedure, shortened: as §1

GalNAc(b1-4)GlcNAc = target: GalNAc(b1-4)GlcNAc
Procedure, shortened: as §1

[7] = target: GalNAc(b1-4)GlcNAc(b1-2)Man
Procedure, shortened: as §1

[8] = target: GalNAc(b1-4)GlcNAc(b1-2)Man(a1-3)[GalNAc(b1-4)GlcNAc(b1-2)Man(a1-6)]Man(b1-4)GlcNAc(b1-4)GlcNAc
Procedure, shortened: as §1

[9] = target: GalNAc(b1-4)GlcNAc(b1-3)GalNAc(b1-4)GlcNAc
Procedure, shortened: as §1

GalNAc(b1-4)GlcNAc6S = target: GalNAc(b1-4)GlcNAc6S
Procedure, shortened: as §1

GalNAc(b1-6)GalNAc = target: GalNAc(b1-6)GalNAc
Procedure, shortened: as §1

GalNAc3S(b1-4)GlcNAc = target: GalNAc3S(b1-4)GlcNAc
Procedure, shortened: as §1

GalNAc3S(b1-4)GlcNAc3S = target: GalNAc3S(b1-4)GlcNAc3S
Procedure, shortened: as §1

[10] = target: GalNAc3S(b1-4)[Fuc(a1-3)]GlcNAc
Procedure, shortened: as §1

GalNAc4S6S(b1-4)GlcNAc = target: GalNAc4S6S(b1-4)GlcNAc
Procedure, shortened: as §1

GalNAc6S(b1-4)GlcNAc = target: GalNAc6S(b1-4)GlcNAc
Procedure, shortened: as §1

Glc(a1-4)Glc = target: Glc(a1-4)Glc
Procedure, shortened: as §1

[11] = target: Glc(a1-4)Glc(a1-4)Glc(a1-4)Glc
Procedure, shortened: as §1

Glc(a1-6)Glc(a1-6)Glc = target: Glc(a1-6)Glc(a1-6)Glc
Procedure, shortened: as §1

[12] = target: Glc(a1-6)Glc(a1-6)Glc(a1-6)Glc
Procedure, shortened: as §1

Glc(b1-4)Glc = target: Glc(b1-4)Glc
Procedure, shortened: as §1

Glc(b1-6)Glc = target: Glc(b1-6)Glc
Procedure, shortened: as §1

GlcA(b1-3)Gal = target: GlcA(b1-3)Gal
Procedure, shortened: as §1

GlcA(b1-3)GlcNAc = target: GlcA(b1-3)GlcNAc
Procedure, shortened: as §1

GlcA(b1-6)Gal = target: GlcA(b1-6)Gal
Procedure, shortened: as §1

[13] = target: GlcA3S(b1-3)Gal(b1-4)GlcNAc(b1-2)Man
Procedure, shortened: as §1

[14] = target: GlcA3S(b1-3)Gal(b1-4)GlcNAc(b1-3)Gal(b1-4)Glc
Procedure, shortened: as §1

[15] = target: GlcNAc(a1-3)Gal(b1-4)GlcNAc
Procedure, shortened: as §1

[16] = target: GlcNAc(a1-4)Gal(b1-3)GlcNAc
Procedure, shortened: as §1

[17] = target: GlcNAc(a1-4)Gal(b1-4)GalNAc
Procedure, shortened: as §1

[18] = target: GlcNAc(a1-4)Gal(b1-4)GlcNAc
Procedure, shortened: as §1

[19] = target: GlcNAc(a1-4)Gal(b1-4)GlcNAc(b1-3)Gal(b1-4)Glc
Procedure, shortened: as §1

[20] = target: GlcNAc(a1-4)Gal(b1-4)GlcNAc(b1-3)Gal(b1-4)GlcNAc
Procedure, shortened: as §1

B1: PpFlo1 (Pichia pastoris) (protein)
chain: MGSSHHHHHHSSGLVPRGSHMQESGDGDISDSAYACDIDATRYDGFNATIYEFQPGDGRLTRDPVFMSTGYLNRTQLHSITGVTDPGFSIYTPGVPTTTLYGIPNVNWENLLLELKGYFRAEVSGDYGLSLRNIDDSAILFFGKETAFQCCNENSISNEASTDYSLFTIFRQEGDETTNLDSFTYTQYLEAGKYYPVRTFFVNIERHAVFNFTMTLPDGTELTDFHNYIYQFGALDEEQCQA
Which “glycan array binding signal (z-score)” value (Gal6S(b1-3)GlcNAc6S) does the source give for B1 here?
The value was 2.66.

What about the “glycan array binding signal (z-score)” value (Gal6S(b1-4)Glc) of the same binder?
The value was -0.06.

And the “glycan array binding signal (z-score)” value (Gal6S(b1-4)Glc6S)?
The value was 0.253.

What about the “glycan array binding signal (z-score)” value (Gal6S(b1-4)GlcNAc) of the same binder?
The value was -0.332.

What about the “glycan array binding signal (z-score)” value (Gal6S(b1-4)GlcNAc6S) of the same binder?
The value was 1.66.

And the “glycan array binding signal (z-score)” value (GalNAc(a1-3)Gal)?
The value was -0.255.

What about the “glycan array binding signal (z-score)” value (GalNAc(a1-3)GalNAc) of the same binder?
Its value is -0.188.

And the “glycan array binding signal (z-score)” value [1]?
The value was -0.677.

And the “glycan array binding signal (z-score)” value [2]?
The value was -0.647.

What about the “glycan array binding signal (z-score)” value [3] of the same binder?
The value was 0.449.

What about the “glycan array binding signal (z-score)” value (GalNAc(b1-3)Gal) of the same binder?
The value was -0.175.

And the “glycan array binding signal (z-score)” value [4]?
The value was 0.096.

What about the “glycan array binding signal (z-score)” value [5] of the same binder?
Its value is -0.571.

And the “glycan array binding signal (z-score)” value [6]?
Its value is -0.479.

And the “glycan array binding signal (z-score)” value (GalNAc(b1-3)GalNAc)?
The value was 0.367.

And the “glycan array binding signal (z-score)” value (GalNAc(b1-3)GlcNAc)?
The value was -0.184.

What about the “glycan array binding signal (z-score)” value (GalNAc(b1-4)Gal(b1-4)Glc) of the same binder?
The value was -0.32.

And the “glycan array binding signal (z-score)” value (GalNAc(b1-4)GlcNAc)?
The value was 0.825.

What about the “glycan array binding signal (z-score)” value [7] of the same binder?
Its value is -0.267.

And the “glycan array binding signal (z-score)” value [8]?
The value was 0.289.

What about the “glycan array binding signal (z-score)” value [9] of the same binder?
The value was -0.577.

What about the “glycan array binding signal (z-score)” value (GalNAc(b1-4)GlcNAc6S) of the same binder?
Its value is -0.201.

What about the “glycan array binding signal (z-score)” value (GalNAc(b1-6)GalNAc) of the same binder?
Its value is -0.571.

What about the “glycan array binding signal (z-score)” value (GalNAc3S(b1-4)GlcNAc) of the same binder?
Its value is -0.43.

What about the “glycan array binding signal (z-score)” value (GalNAc3S(b1-4)GlcNAc3S) of the same binder?
The value was -0.49.

And the “glycan array binding signal (z-score)” value [10]?
Its value is -0.353.

What about the “glycan array binding signal (z-score)” value (GalNAc4S6S(b1-4)GlcNAc) of the same binder?
Its value is -0.174.

What about the “glycan array binding signal (z-score)” value (GalNAc6S(b1-4)GlcNAc) of the same binder?
The value was -0.512.

And the “glycan array binding signal (z-score)” value (Glc(a1-4)Glc)?
The value was -0.508.

And the “glycan array binding signal (z-score)” value [11]?
Its value is -0.257.

What about the “glycan array binding signal (z-score)” value (Glc(a1-6)Glc(a1-6)Glc) of the same binder?
Its value is -0.015.

What about the “glycan array binding signal (z-score)” value [12] of the same binder?
The value was -0.59.

And the “glycan array binding signal (z-score)” value (Glc(b1-4)Glc)?
Its value is -0.209.

And the “glycan array binding signal (z-score)” value (Glc(b1-6)Glc)?
The value was -0.575.

And the “glycan array binding signal (z-score)” value (GlcA(b1-3)Gal)?
Its value is -0.198.

What about the “glycan array binding signal (z-score)” value (GlcA(b1-3)GlcNAc) of the same binder?
Its value is -0.554.

What about the “glycan array binding signal (z-score)” value (GlcA(b1-6)Gal) of the same binder?
Its value is 0.088.

What about the “glycan array binding signal (z-score)” value [13] of the same binder?
Its value is -0.476.

And the “glycan array binding signal (z-score)” value [14]?
Its value is -0.4.

What about the “glycan array binding signal (z-score)” value [15] of the same binder?
Its value is -0.426.

And the “glycan array binding signal (z-score)” value [16]?
The value was 0.471.

What about the “glycan array binding signal (z-score)” value [17] of the same binder?
Its value is 0.13.

What about the “glycan array binding signal (z-score)” value [18] of the same binder?
Its value is 0.008.

And the “glycan array binding signal (z-score)” value [19]?
Its value is -0.56.

What about the “glycan array binding signal (z-score)” value [20] of the same binder?
The value was 1.1.
